Variants at the background level are over-represented here.
B1: TPR 5TU (parent)
chain: GGAUCUUCUCGAUCUAACAAAAAAGACAAAUCUGCCACAAAGCUUGAGAGCAUCUUCGGAUGCAGAGGCGGCAGCCUUCGGUGGCGCGAUAGCGCCAACGUUCUCAACUAUGACACGCAAAACGCGUGCUCCGUUGAAUGGAGUUUAUCAUG

Variants of: B1
Assay: polymerase ribozyme fitness, log enrichment relative to wild type (log ratio); higher = more active; in vitro selection for triplet polymerase activity
Procedure, shortened: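 After PCR construction and transcription, each subunit's mutant library from a heterodimeric triplet polymerase ribozyme was annealed with a biotinylated primer, the partner subunit and triplets. Incubation was frozen, at −7 °C, and extended constructs were gel-excised, bound to streptavidin beads and amplified by RT-PCR, in one selection round done in triplicate. Fitness is the logarithm of a genotype's enrichment divided by that of the wild type, from inverse-variance-weighted replicate averages of Illumina-sequenced inputs and outputs. The base of the logarithm is 2, and genotypes needed ≥10 input reads and ≥1 read per output.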

| Variant | polymerase ribozyme fitness (log ratio) |
| --- | --- |
| A37C C79A C114A A138C | ≤ -4.2 |
| A39C G50A G70C G88C U145G | ≤ -4.2 |
| C38U C85U G88U U102C | ≤ -4.2 |
| A39U G46U U90G G133U | ≤ -4.2 |
| A40C C85G C103A U135C | ≤ -4.2 |
| C35U A41C A49C U55A C85A G86A U90G G117U | ≤ -4.2 |
| C36U A52G C54A A73G G94U A138U | ≤ -4.2 |
| A39G G48A G84C | ≤ -4.2 |
| A37C G42C A91U C95U A110U U135A A150U | ≤ -4.2 |
| C35U A40C A64U G67A C87U C132G G140U | ≤ -4.2 |
| C36A C87U A97C A98U U145C | ≤ -4.2 |
| A40C C72U G86C G143U | ≤ -4.2 |
| A39G U61G G70C C79U G88C C108U U109G A115U A120G U146G | ≤ -4.2 |
| A37C C93A U139C | ≤ -4.2 |
| A39C U101A A121U | ≤ -4.2 |
| A39U G88A G94C A150U | ≤ -4.2 |
| C38U U55A C79U G86A G88C C105A U109G A121C | ≤ -4.2 |
| A37C G67U A73C U90C G94C G140U | ≤ -4.2 |
| A39C G83C C105G A110G G133A | ≤ -4.2 |
| C38U G58A C93G U102G G143A | ≤ -4.2 |
| C36A A107U | ≤ -4.2 |

| Variant | polymerase ribozyme fitness (log ratio) |
| --- | --- |
| C35U A66G G74A C79A G83U C85A C95A U102G U104G | ≤ -4.2 |
| A40C A49C G84A C93G A150U | ≤ -4.2 |
| A37C C57G G62C C87A | ≤ -4.2 |
| A39U A40G U77C U82A A150C | ≤ -4.2 |
| A40C A52U C54G U55A C87G C93U | ≤ -4.2 |
| C38A C79G U82G C95A A106U G143C | ≤ -4.2 |
| C36U G94A C129U A150C | ≤ -4.2 |
| A39C G70A G80A C99G A119U | ≤ -4.2 |
| A40C A52C C54U G70U C87A A98U C105G U109G | ≤ -4.2 |
| A39C C99U U111G | ≤ -4.2 |
| A37G A52C U102C G141A | ≤ -4.2 |
| A40C G50A G58C C116A U144G | ≤ -4.2 |
| C38U C93A A113G C114A A150G | ≤ -4.2 |
| C38U G42A U82C C108G U111A | ≤ -4.2 |
| A39U G46A G92U C93G G141C | ≤ -4.2 |
| C36A G42A C76A G86U G94A A98U | ≤ -4.2 |
| C38U C76U U82C G86U A98C A121C A142C | ≤ -4.2 |
| A39C U56A A66G G67A A106G A110G A122U U127A | ≤ -4.2 |
| A39G A41U A49G C54A C87U C118U G143C A147C | ≤ -4.2 |
| A37C G74A A91G C95U U135G A150U | ≤ -4.2 |
| C38A A47U C76G | ≤ -4.2 |

| Variant | polymerase ribozyme fitness (log ratio) |
| --- | --- |
| C35G C96G | ≤ -4.2 |
| A39U G80C G94A C118U | ≤ -4.2 |
| A37U C38U C93A U139G | ≤ -4.2 |
| C35U U55G U146G A147C | ≤ -4.2 |
| A40C A49U C75G U78G G94C C99U | ≤ -4.2 |
| A40C C79A C99U G126A U139A A147U | ≤ -4.2 |
| A39C G71U U78G U82A C105G A113U | ≤ -4.2 |
| C38U G59A G67C G92U C99G U101G C116U G143U | ≤ -4.2 |
| C35U G86A C93A A113C | ≤ -4.2 |
| C38A C54G G84U C87U G92C G126U | ≤ -4.2 |
| A39G C108U U109G | ≤ -4.2 |
| A37U G59A C69G A73U C76A G84A C96U A138G U146C | ≤ -4.2 |
| A37U G83A A113C | ≤ -4.2 |
| A37C C54U U56A G67C | ≤ -4.2 |
| A39C G58C C131G | ≤ -4.2 |
| A39C A49C C54A C57U G58C G88A A147C | ≤ -4.2 |
| A37G G74U C79A C85G | ≤ -4.2 |
| C36U G84U U111A C116U | ≤ -4.2 |
| A37G A91G U134G | ≤ -4.2 |
| A37C C75A G84C A147U | ≤ -4.2 |
| C35U A64C C105G A121C U134G U144C | ≤ -4.2 |

| Variant | polymerase ribozyme fitness (log ratio) |
| --- | --- |
| A37C G68A G71C C85A A119U | ≤ -4.2 |
| A39G U55A A73C C87G A110U G136U | ≤ -4.2 |
| C36A A107G G140U U146G | ≤ -4.2 |
| C35U G50C C93G | ≤ -4.2 |
| A40C C79U C93G G100U A147C | ≤ -4.2 |
| A39G C54U G83U G133A | ≤ -4.2 |
| C38A G86A C108A | ≤ -4.2 |
| C35U C87A A107G | ≤ -4.2 |
| C35U G50C C75U G84C C93U | ≤ -4.2 |
| A37C A66G C85A G141C | ≤ -4.2 |
| A39G U53A A66U A73G C87U C96U | ≤ -4.2 |
| A37G G83U U102G C116U G117C U135C U145G G152U | ≤ -4.2 |
| A39G U78A C95G U104G | ≤ -4.2 |
| A39G A49U C93U G128A C129U G141A G143C U144A | ≤ -4.2 |
| C38U U56G G83C C129G | ≤ -4.2 |
| C36U A47C U56A C93G | ≤ -4.2 |
| A39G A41C C43G G59C C69A G94U G100U | ≤ -4.2 |
| A37C C72A C87G | ≤ -4.2 |
| C35U C54A U77C G86U C116U G117A | ≤ -4.2 |
| A37G U56A C85U C105A | ≤ -4.2 |
| A37U G50C U53A G59U C63U G86A G117C C129U | ≤ -4.2 |

— the RNAGym collection of RNA variant scans (doi:10.1073/pnas.2313332121)
